In publication PMC12820563:
Some of the results follow. The list includes weakly bound sequences.

molecular target: T1, MBP-FoxP3dN (UniProt Q99JB6); test: PD-seq (MBP pull-down with sequencing); details: 20 mM Tris-HCl pH 7.5, 100 mM NaCl, 1.5 mM MgCl2, 0.4 uM protein, 0.1 uM dsDNA library, 30 min, room temperature, amylose pull-down; high values mean tight binding; double strand, one strand shown
T1 sequence: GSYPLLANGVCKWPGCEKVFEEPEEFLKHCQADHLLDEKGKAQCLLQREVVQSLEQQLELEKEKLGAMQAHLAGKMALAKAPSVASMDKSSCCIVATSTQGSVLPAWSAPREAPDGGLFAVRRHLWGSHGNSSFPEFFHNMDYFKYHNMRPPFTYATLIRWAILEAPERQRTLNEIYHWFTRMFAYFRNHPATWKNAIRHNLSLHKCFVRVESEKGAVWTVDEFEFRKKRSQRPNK

Sequence | binding signal (RPM ratio (pull-down/input))
GATGATTGTTCTCCCAGCTGATGAATTTAGCCTATCGAGTAAACAAATTTTCCTAATCTTTCTGTTCAAGCGCCATCTAC | 2.18
GATGATTGTTCTCCCAGCTGATGAATTTGAGCTATCGAGTAAACAAATTTTCCTAATCTTTCTGTTCAAGCGCCATCTAC | 0.575
GATGATTGTTCTCCCAGCTGATGAATTATGAATATCGAGTAAACAAATTTTCCTAATCTTTCTGTTCAAGCGCCATCTAC | 0.727
GATGATTGTTCTCCCAGCTGATGAATTATGGCGATCGAGTAAACAAATTTTCCTAATCTTTCTGTTCAAGCGCCATCTAC | 0.831
GATGATTGTTCTCCCAGCTGATGAATTAGACTACTCGAGTAAACAAATTTTCCTAATCTTTCTGTTCAAGCGCCATCTAC | 0.476
GATGATTGTTCTCCCAGCTGATGAATTGACCCTCTCGAGTAAACAAATTTTCCTAATCTTTCTGTTCAAGCGCCATCTAC | 0.32
GATGATTGTTCTCCCAGCTGATGAATTGCCAGTTTCGAGTAAACAAATTTTCCTAATCTTTCTGTTCAAGCGCCATCTAC | 0.628
GATGATTGTTCTCCCAGCTGATGAATTCAGCTCGTCGAGTAAACAAATTTTCCTAATCTTTCTGTTCAAGCGCCATCTAC | 0.502
GATGATTGTTCTCCCAGCTGATGAATTAAGAGTATCGAGTAAACAAATTTTCCTAATCTTTCTGTTCAAGCGCCATCTAC | 0.587
GATGATTGTTCTCCCAGCTGATGAATTCTGGTATTCGAGTAAACAAATTTTCCTAATCTTTCTGTTCAAGCGCCATCTAC | 1.22
GATGATTGTTCTCCCAGCTGATGAATTGACTCCATCGAGTAAACAAATTTTCCTAATCTTTCTGTTCAAGCGCCATCTAC | 0.407
GATGATTGTTCTCCCAGCTGATGAATTAACTGTCTCGAGTAAACAAATTTTCCTAATCTTTCTGTTCAAGCGCCATCTAC | 0.5
GATGATTGTTCTCCCAGCTGATGAATTCGACGGTTCGAGTAAACAAATTTTCCTAATCTTTCTGTTCAAGCGCCATCTAC | 0.409
GATGATTGTTCTCCCAGCTGATGAATTTAGGGTTTCGAGTAAACAAATTTTCCTAATCTTTCTGTTCAAGCGCCATCTAC | 1.06
GATGATTGTTCTCCCAGCTGATGAATTGCCCTCCTCGAGTAAACAAATTTTCCTAATCTTTCTGTTCAAGCGCCATCTAC | 0.471
GATGATTGTTCTCCCAGCTGATGAATTCCTAAGATCGAGTAAACAAATTTTCCTAATCTTTCTGTTCAAGCGCCATCTAC | 0.174
GATGATTGTTCTCCCAGCTGATGAATTACCCGCCTCGAGTAAACAAATTTTCCTAATCTTTCTGTTCAAGCGCCATCTAC | 0.472
GATGATTGTTCTCCCAGCTGATGAATTGCCAGGTTCGAGTAAACAAATTTTCCTAATCTTTCTGTTCAAGCGCCATCTAC | 0.536
GATGATTGTTCTCCCAGCTGATGAATTCTCAGAGTCGAGTAAACAAATTTTCCTAATCTTTCTGTTCAAGCGCCATCTAC | 0.203
GATGATTGTTCTCCCAGCTGATGAATTCAATGTTTCGAGTAAACAAATTTTCCTAATCTTTCTGTTCAAGCGCCATCTAC | 1.92
GATGATTGTTCTCCCAGCTGATGAATTGATAGGCTCGAGTAAACAAATTTTCCTAATCTTTCTGTTCAAGCGCCATCTAC | 0.394

Sequence | binding signal (RPM ratio (pull-down/input))
GATGATTGTTCTCCCAGCTGATGAATTCTCCCGCTCGAGTAAACAAATTTTCCTAATCTTTCTGTTCAAGCGCCATCTAC | 0.24
GATGATTGTTCTCCCAGCTGATGAATTGTTTGCGTCGAGTAAACAAATTTTCCTAATCTTTCTGTTCAAGCGCCATCTAC | 6.41
GATGATTGTTCTCCCAGCTGATGAATTTCTAAGCTCGAGTAAACAAATTTTCCTAATCTTTCTGTTCAAGCGCCATCTAC | 0.219
GATGATTGTTCTCCCAGCTGATGAATTTGGAGGATCGAGTAAACAAATTTTCCTAATCTTTCTGTTCAAGCGCCATCTAC | 0.321
GATGATTGTTCTCCCAGCTGATGAATTCGTCGAATCGAGTAAACAAATTTTCCTAATCTTTCTGTTCAAGCGCCATCTAC | 0.229
GATGATTGTTCTCCCAGCTGATGAATTTGAAAATTCGAGTAAACAAATTTTCCTAATCTTTCTGTTCAAGCGCCATCTAC | 0.171
GATGATTGTTCTCCCAGCTGATGAATTCCGTATCTCGAGTAAACAAATTTTCCTAATCTTTCTGTTCAAGCGCCATCTAC | 4.26
GATGATTGTTCTCCCAGCTGATGAATTAGGTATTTCGAGTAAACAAATTTTCCTAATCTTTCTGTTCAAGCGCCATCTAC | 2.06
GATGATTGTTCTCCCAGCTGATGAATTTTTCTACTCGAGTAAACAAATTTTCCTAATCTTTCTGTTCAAGCGCCATCTAC | 0.279
GATGATTGTTCTCCCAGCTGATGAATTGTCGCGCTCGAGTAAACAAATTTTCCTAATCTTTCTGTTCAAGCGCCATCTAC | 0.667
GATGATTGTTCTCCCAGCTGATGAATTTAATGCTTCGAGTAAACAAATTTTCCTAATCTTTCTGTTCAAGCGCCATCTAC | 1.55
GATGATTGTTCTCCCAGCTGATGAATTAGACACGTCGAGTAAACAAATTTTCCTAATCTTTCTGTTCAAGCGCCATCTAC | 0.515
GATGATTGTTCTCCCAGCTGATGAATTAGACGATTCGAGTAAACAAATTTTCCTAATCTTTCTGTTCAAGCGCCATCTAC | 0.346
GATGATTGTTCTCCCAGCTGATGAATTTTGTGGGTCGAGTAAACAAATTTTCCTAATCTTTCTGTTCAAGCGCCATCTAC | 1.96
GATGATTGTTCTCCCAGCTGATGAATTGCACTCCTCGAGTAAACAAATTTTCCTAATCTTTCTGTTCAAGCGCCATCTAC | 1.02
GATGATTGTTCTCCCAGCTGATGAATTTTGTGACTCGAGTAAACAAATTTTCCTAATCTTTCTGTTCAAGCGCCATCTAC | 2.36
GATGATTGTTCTCCCAGCTGATGAATTAGGGGCTTCGAGTAAACAAATTTTCCTAATCTTTCTGTTCAAGCGCCATCTAC | 0.434
GATGATTGTTCTCCCAGCTGATGAATTAGTGCGCTCGAGTAAACAAATTTTCCTAATCTTTCTGTTCAAGCGCCATCTAC | 0.74
GATGATTGTTCTCCCAGCTGATGAATTCACATTCTCGAGTAAACAAATTTTCCTAATCTTTCTGTTCAAGCGCCATCTAC | 0.482
GATGATTGTTCTCCCAGCTGATGAATTCGAGGTATCGAGTAAACAAATTTTCCTAATCTTTCTGTTCAAGCGCCATCTAC | 0.576
GATGATTGTTCTCCCAGCTGATGAATTCAGGTGATCGAGTAAACAAATTTTCCTAATCTTTCTGTTCAAGCGCCATCTAC | 0.457

Sequence | binding signal (RPM ratio (pull-down/input))
GATGATTGTTCTCCCAGCTGATGAATTGCATGCATCGAGTAAACAAATTTTCCTAATCTTTCTGTTCAAGCGCCATCTAC | 3.74
GATGATTGTTCTCCCAGCTGATGAATTCTTTCAATCGAGTAAACAAATTTTCCTAATCTTTCTGTTCAAGCGCCATCTAC | 0.248
GATGATTGTTCTCCCAGCTGATGAATTACAGGTCTCGAGTAAACAAATTTTCCTAATCTTTCTGTTCAAGCGCCATCTAC | 0.596
GATGATTGTTCTCCCAGCTGATGAATTACAAGCTTCGAGTAAACAAATTTTCCTAATCTTTCTGTTCAAGCGCCATCTAC | 0.518
GATGATTGTTCTCCCAGCTGATGAATTACTGCACTCGAGTAAACAAATTTTCCTAATCTTTCTGTTCAAGCGCCATCTAC | 0.687
GATGATTGTTCTCCCAGCTGATGAATTGGGCTATTCGAGTAAACAAATTTTCCTAATCTTTCTGTTCAAGCGCCATCTAC | 1.48
GATGATTGTTCTCCCAGCTGATGAATTACCACCATCGAGTAAACAAATTTTCCTAATCTTTCTGTTCAAGCGCCATCTAC | 0.513
GATGATTGTTCTCCCAGCTGATGAATTTCCGCTTTCGAGTAAACAAATTTTCCTAATCTTTCTGTTCAAGCGCCATCTAC | 1.07
GATGATTGTTCTCCCAGCTGATGAATTAATGGGGTCGAGTAAACAAATTTTCCTAATCTTTCTGTTCAAGCGCCATCTAC | 0.393
GATGATTGTTCTCCCAGCTGATGAATTTCACCAATCGAGTAAACAAATTTTCCTAATCTTTCTGTTCAAGCGCCATCTAC | 0.259
GATGATTGTTCTCCCAGCTGATGAATTCGCGGTGTCGAGTAAACAAATTTTCCTAATCTTTCTGTTCAAGCGCCATCTAC | 0.67
GATGATTGTTCTCCCAGCTGATGAATTCATACGGTCGAGTAAACAAATTTTCCTAATCTTTCTGTTCAAGCGCCATCTAC | 0.357
GATGATTGTTCTCCCAGCTGATGAATTCGATTCTTCGAGTAAACAAATTTTCCTAATCTTTCTGTTCAAGCGCCATCTAC | 1.16
GATGATTGTTCTCCCAGCTGATGAATTCTCAGGCTCGAGTAAACAAATTTTCCTAATCTTTCTGTTCAAGCGCCATCTAC | 0.216
GATGATTGTTCTCCCAGCTGATGAATTGAATCACTCGAGTAAACAAATTTTCCTAATCTTTCTGTTCAAGCGCCATCTAC | 0.551
GATGATTGTTCTCCCAGCTGATGAATTTGGAGCCTCGAGTAAACAAATTTTCCTAATCTTTCTGTTCAAGCGCCATCTAC | 0.542
GATGATTGTTCTCCCAGCTGATGAATTTCTGCTATCGAGTAAACAAATTTTCCTAATCTTTCTGTTCAAGCGCCATCTAC | 0.604
GATGATTGTTCTCCCAGCTGATGAATTACGCGTGTCGAGTAAACAAATTTTCCTAATCTTTCTGTTCAAGCGCCATCTAC | 4.31
GATGATTGTTCTCCCAGCTGATGAATTTCGATCCTCGAGTAAACAAATTTTCCTAATCTTTCTGTTCAAGCGCCATCTAC | 0.432
GATGATTGTTCTCCCAGCTGATGAATTGTTAAAGTCGAGTAAACAAATTTTCCTAATCTTTCTGTTCAAGCGCCATCTAC | 0.28
GATGATTGTTCTCCCAGCTGATGAATTCGTCCTATCGAGTAAACAAATTTTCCTAATCTTTCTGTTCAAGCGCCATCTAC | 0.644
